Experimental data from the supplement of paper PMC10126150.
Values marked as one replicate rest on one cluster of the flow cell; about a third of the high ones do not repeat.

System: ATP
Assay: switch fluorescence ratio, 500 uM ATP over buffer (Cy3 cluster intensity, sum of 5 cycles each) (fold (ratio)); higher = stronger signal-on switching upon ATP binding; sequences stand for … in TCGTCGGCAGCGTCAGATGTGTATAAGAGACAGTTTTTTTTTTTTTTTTTTTTTTTTT…TC
Conditions: aptamer strand: ATP DNA aptamer (quencher-CACCTGGGGGAGTATTGCGGAGGAAGG + anchor), 100 nM annealed; ATP concentration: 500 uM; one replicate
Summary of the method: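 For every switch-domain sequence, the fluorescence ratio is the mean of per-cluster values, each being summed target-cycle Cy3 intensity over summed buffer-cycle Cy3 intensity. Clusters outside 100-1000 RFU were excluded. On a modified Illumina MiSeq flow-cell, the Cy3-labelled switching-strand clusters were annealed to 100 nM quencher-labelled ATP aptamer, imaged in selection buffer and then after 15 min with 500 uM ATP at 22 °C. Five such cycles were run, with NaOH stripping and re-annealing between them.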
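Note: ATP exposure 15 min at 22 °C before imaging.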

Question: GCAATTCAAT was tested. Which switch fluorescence ratio did it give?
Answer: The switch fluorescence ratio was 1.02.

Question: With AACTGGATCG as the sequence, how does the switch fluorescence ratio read?
Answer: Its switch fluorescence ratio is 1.09.

Question: Which switch fluorescence ratio does the source give for CTTGTTCGAG here?
Answer: The switch fluorescence ratio was 0.96.

Question: TATTTTAAAT was tested. Which switch fluorescence ratio did it give?
Answer: The switch fluorescence ratio was 1.04.

Question: TTAGTTGCTC was tested. Which switch fluorescence ratio did it give?
Answer: Its switch fluorescence ratio is 1.02.

Question: For ACCGGGCCGC, which switch fluorescence ratio is on record?
Answer: Its switch fluorescence ratio is 1.08.

Question: How did the switch fluorescence ratio turn out when TGTTTGTGGA was run?
Answer: The switch fluorescence ratio was 0.982.

Question: With ATCGACCAGC as the sequence, how does the switch fluorescence ratio read?
Answer: Its switch fluorescence ratio is 1.05.

Question: TCGGGACTAG was tested. Which switch fluorescence ratio did it give?
Answer: Its switch fluorescence ratio is 1.15.

Question: AAGTTACAGG was tested. Which switch fluorescence ratio did it give?
Answer: The switch fluorescence ratio was 1.08.

Question: With TAAGTGCGAA as the sequence, how does the switch fluorescence ratio read?
Answer: Its switch fluorescence ratio is 1.

Question: With TGGGCGTGTA as the sequence, how does the switch fluorescence ratio read?
Answer: The switch fluorescence ratio was 1.01.

Question: How did the switch fluorescence ratio turn out when AGGCTGAGGA was run?
Answer: Its switch fluorescence ratio is 0.964.

Question: With AGTACGACCC as the sequence, how does the switch fluorescence ratio read?
Answer: The switch fluorescence ratio was 1.88.

Question: How did the switch fluorescence ratio turn out when AAGTCACATT was run?
Answer: The switch fluorescence ratio was 1.03.

Question: How did the switch fluorescence ratio turn out when AGAGGGACGT was run?
Answer: Its switch fluorescence ratio is 1.

Question: How did the switch fluorescence ratio turn out when CAATCACATG was run?
Answer: The switch fluorescence ratio was 1.08.

Question: TTGGGAGTCT was tested. Which switch fluorescence ratio did it give?
Answer: The switch fluorescence ratio was 0.982.

Question: ATCTGACAAG was tested. Which switch fluorescence ratio did it give?
Answer: The switch fluorescence ratio was 1.04.

Question: With CTCCGGGGT as the sequence, how does the switch fluorescence ratio read?
Answer: Its switch fluorescence ratio is 1.82.

Question: For GAAGGAACGC, which switch fluorescence ratio is on record?
Answer: The switch fluorescence ratio was 1.09.

Question: With TGGGTAGTT as the sequence, how does the switch fluorescence ratio read?
Answer: The switch fluorescence ratio was 1.02.

Question: How did the switch fluorescence ratio turn out when TTCTTGCTGA was run?
Answer: Its switch fluorescence ratio is 1.02.

Question: How did the switch fluorescence ratio turn out when GATTAGGACT was run?
Answer: The switch fluorescence ratio was 1.03.

Question: AAACGAGTAG was tested. Which switch fluorescence ratio did it give?
Answer: The switch fluorescence ratio was 1.

Question: Which switch fluorescence ratio does the source give for AGGTGGTAGC here?
Answer: The switch fluorescence ratio was 0.978.

Question: How did the switch fluorescence ratio turn out when TATGCCAGAT was run?
Answer: The switch fluorescence ratio was 0.987.

Question: For ATCATATGCG, which switch fluorescence ratio is on record?
Answer: Its switch fluorescence ratio is 0.972.

Question: How did the switch fluorescence ratio turn out when TGGTAAATTT was run?
Answer: The switch fluorescence ratio was 0.979.

Question: TTAAAGCCTA was tested. Which switch fluorescence ratio did it give?
Answer: Its switch fluorescence ratio is 0.901.

Question: With TAACAATACT as the sequence, how does the switch fluorescence ratio read?
Answer: The switch fluorescence ratio was 1.13.

Question: With TTCTTAACAA as the sequence, how does the switch fluorescence ratio read?
Answer: Its switch fluorescence ratio is 1.08.

Question: Which switch fluorescence ratio does the source give for ATCAATATAC here?
Answer: Its switch fluorescence ratio is 1.79.

Question: Which switch fluorescence ratio does the source give for GCCGCGGTAT here?
Answer: The switch fluorescence ratio was 1.18.

Question: Which switch fluorescence ratio does the source give for AGCATCTATT here?
Answer: The switch fluorescence ratio was 0.999.

Question: For CATGTCTGGA, which switch fluorescence ratio is on record?
Answer: The switch fluorescence ratio was 0.991.

Question: Which switch fluorescence ratio does the source give for CTACACGCGG here?
Answer: The switch fluorescence ratio was 1.05.

Question: With TCCATGGGCG as the sequence, how does the switch fluorescence ratio read?
Answer: The switch fluorescence ratio was 0.996.

Question: With GCGTTGGGA as the sequence, how does the switch fluorescence ratio read?
Answer: Its switch fluorescence ratio is 0.985.

Question: How did the switch fluorescence ratio turn out when CATTTTTGGT was run?
Answer: The switch fluorescence ratio was 0.974.

Question: With TGAGGGCTCC as the sequence, how does the switch fluorescence ratio read?
Answer: The switch fluorescence ratio was 0.988.

Question: For TAGGAGACGC, which switch fluorescence ratio is on record?
Answer: Its switch fluorescence ratio is 1.04.

Question: Which switch fluorescence ratio does the source give for GGTCTTGGTT here?
Answer: The switch fluorescence ratio was 1.02.

Question: Which switch fluorescence ratio does the source give for GGAGGTGCAT here?
Answer: The switch fluorescence ratio was 1.05.

Question: For GCTTCCCGGA, which switch fluorescence ratio is on record?
Answer: The switch fluorescence ratio was 1.03.

Question: For GGGAGTTCAC, which switch fluorescence ratio is on record?
Answer: The switch fluorescence ratio was 0.933.

Question: With CCACGGAAAG as the sequence, how does the switch fluorescence ratio read?
Answer: The switch fluorescence ratio was 0.986.

Question: Which switch fluorescence ratio does the source give for AACCTAGCTC here?
Answer: Its switch fluorescence ratio is 1.14.

Question: How did the switch fluorescence ratio turn out when TGAGTTTGGA was run?
Answer: The switch fluorescence ratio was 1.05.

Question: How did the switch fluorescence ratio turn out when TTAGCCACTA was run?
Answer: Its switch fluorescence ratio is 1.03.

Question: For GGATGATCCT, which switch fluorescence ratio is on record?
Answer: Its switch fluorescence ratio is 1.01.

Question: How did the switch fluorescence ratio turn out when CACTGGCGGT was run?
Answer: The switch fluorescence ratio was 1.

Question: How did the switch fluorescence ratio turn out when TAGCGATTCA was run?
Answer: Its switch fluorescence ratio is 0.978.

Question: For TATGTCATGG, which switch fluorescence ratio is on record?
Answer: The switch fluorescence ratio was 1.03.

Question: TCATTTAA was tested. Which switch fluorescence ratio did it give?
Answer: The switch fluorescence ratio was 0.954.

Question: With GTCGCAGTGG as the sequence, how does the switch fluorescence ratio read?
Answer: Its switch fluorescence ratio is 1.04.

Question: For TATACTGTCC, which switch fluorescence ratio is on record?
Answer: Its switch fluorescence ratio is 1.27.

Question: Which switch fluorescence ratio does the source give for TGAAAGATAT here?
Answer: The switch fluorescence ratio was 1.18.

Question: CTTAGAGACA was tested. Which switch fluorescence ratio did it give?
Answer: Its switch fluorescence ratio is 0.953.

Question: CAGCCTCCGG was tested. Which switch fluorescence ratio did it give?
Answer: Its switch fluorescence ratio is 1.05.

Question: For ACCACGTTGT, which switch fluorescence ratio is on record?
Answer: Its switch fluorescence ratio is 0.99.

Question: How did the switch fluorescence ratio turn out when AGGTCTTTGA was run?
Answer: The switch fluorescence ratio was 0.985.

Question: CGTCTCTTTA was tested. Which switch fluorescence ratio did it give?
Answer: Its switch fluorescence ratio is 0.99.

Question: TGTCTGAC was tested. Which switch fluorescence ratio did it give?
Answer: Its switch fluorescence ratio is 1.32.

Question: For TATGGGATGG, which switch fluorescence ratio is on record?
Answer: The switch fluorescence ratio was 0.978.

Question: For AGCCAAACAG, which switch fluorescence ratio is on record?
Answer: Its switch fluorescence ratio is 0.945.

Question: How did the switch fluorescence ratio turn out when CATCGAATAT was run?
Answer: Its switch fluorescence ratio is 1.05.

Question: With CATGGTAAAC as the sequence, how does the switch fluorescence ratio read?
Answer: Its switch fluorescence ratio is 0.998.

Question: For GCAGACCTTT, which switch fluorescence ratio is on record?
Answer: Its switch fluorescence ratio is 1.03.

Question: How did the switch fluorescence ratio turn out when ATTAAAGCGC was run?
Answer: Its switch fluorescence ratio is 0.977.

Question: With CACGTTCCCT as the sequence, how does the switch fluorescence ratio read?
Answer: The switch fluorescence ratio was 1.11.

Question: ATAACGTAGA was tested. Which switch fluorescence ratio did it give?
Answer: The switch fluorescence ratio was 1.02.

Question: ACGGGCCAGG was tested. Which switch fluorescence ratio did it give?
Answer: The switch fluorescence ratio was 1.49.

Question: Which switch fluorescence ratio does the source give for GGGCTGTA here?
Answer: The switch fluorescence ratio was 0.995.

Question: GCAGGGCAGG was tested. Which switch fluorescence ratio did it give?
Answer: The switch fluorescence ratio was 1.14.

Question: Which switch fluorescence ratio does the source give for AAGAAGAACC here?
Answer: The switch fluorescence ratio was 1.06.

Question: Which switch fluorescence ratio does the source give for CTGTTCTGCC here?
Answer: Its switch fluorescence ratio is 0.975.

Question: Which switch fluorescence ratio does the source give for CTTGTTAGAT here?
Answer: Its switch fluorescence ratio is 1.02.

Question: With TGTAAGTTCC as the sequence, how does the switch fluorescence ratio read?
Answer: Its switch fluorescence ratio is 1.08.

Question: TTGGAGCCCC was tested. Which switch fluorescence ratio did it give?
Answer: The switch fluorescence ratio was 1.02.

Question: With TCCGGTGCCT as the sequence, how does the switch fluorescence ratio read?
Answer: The switch fluorescence ratio was 1.18.

Question: For ACAGACAAAC, which switch fluorescence ratio is on record?
Answer: Its switch fluorescence ratio is 1.16.

Question: Which switch fluorescence ratio does the source give for GCCAGGCCTG here?
Answer: The switch fluorescence ratio was 0.997.

Question: GTGGAGTTTC was tested. Which switch fluorescence ratio did it give?
Answer: The switch fluorescence ratio was 0.955.

Question: Which switch fluorescence ratio does the source give for ACGTCACATC here?
Answer: The switch fluorescence ratio was 1.53.

Question: How did the switch fluorescence ratio turn out when TTCGGGGTAC was run?
Answer: The switch fluorescence ratio was 2.38.

Question: Which switch fluorescence ratio does the source give for TGTCGAACGG here?
Answer: Its switch fluorescence ratio is 1.02.

Question: For ATACAGTAGT, which switch fluorescence ratio is on record?
Answer: Its switch fluorescence ratio is 1.05.

Question: For AGGGAATGCC, which switch fluorescence ratio is on record?
Answer: The switch fluorescence ratio was 1.

Question: For TAATAGTGCA, which switch fluorescence ratio is on record?
Answer: The switch fluorescence ratio was 1.04.

Question: GCGCATACGT was tested. Which switch fluorescence ratio did it give?
Answer: Its switch fluorescence ratio is 1.66.

Question: Which switch fluorescence ratio does the source give for GCGGTAAGCC here?
Answer: The switch fluorescence ratio was 0.991.

Question: How did the switch fluorescence ratio turn out when ATCGCTTATA was run?
Answer: Its switch fluorescence ratio is 1.07.

Question: With TGACACGATG as the sequence, how does the switch fluorescence ratio read?
Answer: The switch fluorescence ratio was 1.02.

Question: How did the switch fluorescence ratio turn out when ACAAGTGTGA was run?
Answer: The switch fluorescence ratio was 1.

Question: Which switch fluorescence ratio does the source give for CGGTGACATT here?
Answer: The switch fluorescence ratio was 1.05.

Question: AGTGGAGAGT was tested. Which switch fluorescence ratio did it give?
Answer: Its switch fluorescence ratio is 0.974.

Question: For GGAGCTCAGA, which switch fluorescence ratio is on record?
Answer: Its switch fluorescence ratio is 1.06.

Question: TATAGTGCCT was tested. Which switch fluorescence ratio did it give?
Answer: The switch fluorescence ratio was 1.07.

Question: With TTTTTCATTC as the sequence, how does the switch fluorescence ratio read?
Answer: Its switch fluorescence ratio is 1.04.

Question: Which switch fluorescence ratio does the source give for CGGGGCGGGC here?
Answer: The switch fluorescence ratio was 1.01.
